According to PubChem BioAssay AID504832 (National Center for Advancing Translational Sciences (NCATS), 2011):
Hit rate of the full screen: of about 310,000 compounds, about 18,000 (5.8%) were called active. The inconclusive results got no clear call from the source; some entries with a clear call stand among them for comparison. Calls come from the whole dose curve; as a rule, active = well fitted inhibition curve with a large enough effect; inconclusive = small, poorly fitted or top-dose-only effect, or another doubt; inactive = no such curve, though single readings can be large or run the other way. Potencies of inconclusive entries are left out as doubtful fits.
% is set by controls: 0 for no effect and ±100 for the full control effect; potency is the fitted concentration of half-maximal effect; tags give direction and shape of the fitted curve.

Assay: Primary qHTS for delayed death inhibitors of the malarial parasite plastid, 48 hour incubation
Conditions: P. falciparum luciferase growth in erythrocytes; series mostly up to 28.7 µM; activity change, negative = inhibition: at the top concentration
In short: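 Luciferase-expressing parasites in RBCs, 2% Hct / 0.1% parasitemia final; RPMI 1640 + 0.5% Albumax; 37 C, 5% CO2, one generation; luminescence read-out, lower signal = inhibition.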
For CCCc1cc(=O)oc2cc(C)cc(OCC(=O)Nc3cccnc3)c12, the Potency was active: 0.147 µM. With CCN(CC(=O)NCc1ccc(F)cc1)C(=O)c1oc2ccccc2c1C the Potency was inconclusive [inhibitor, single point]. In the case of COc1ccc(OC)c(-c2nnc3n2N=C(c2ccc(OC)c(OC)c2)CS3)c1, the Potency was active: 5.86 µM. With O=C(Nc1cccc([N+](=O)[O-])c1)Nc1cccs1 the Potency was inconclusive [inhibitor, single point]. In the case of O=C(CNC(=O)c1ccccc1C(F)(F)F)N/N=C/c1cccs1, the “activity change, negative = inhibition” value was inactive: 21.5%. For CS(=O)(=O)c1cccc(-c2nnc(NC(=O)C3=COCCO3)o2)c1, the Potency was inconclusive [inhibitor, single point]. For CCN(CC)C(=O)c1ccc(N)cc1, the “activity change, negative = inhibition” value was inactive: -1.21%. With CCOC(=O)/C(=C\Nc1ccccc1C(F)(F)F)Sc1ncc(C(F)(F)F)cc1Cl the Potency was inconclusive [inhibitor, full curve, poor fit]. With COc1ccc(N=C2SCCCN2C)cc1 the Potency was inconclusive [inhibitor, single point]. For CC1=CCC2C(=O)N(CCc3c[nH]c4ccccc34)C(=O)C2C1 (stereo not given), the Potency was inconclusive [inhibitor, single point]. In the case of Cc1ccc(S(=O)(=O)N2CCN(c3ccnc4cc(Cl)ccc34)CC2)cc1, the Potency was active: 10.4 µM. For CSc1ccc(CN(C)C(=O)c2cccc(S(=O)(=O)N3CCN(Cc4ccccc4)CC3)c2)cc1, the Potency was inconclusive [inhibitor, single point]. For O=C(CSCc1ccccc1)Nc1ccc(S(=O)(=O)N2CCOCC2)cc1, the Potency was inconclusive [inhibitor, partial curve, poor fit]. In the case of O=C1CCCN2N=C(SCC(=O)Nc3ccc(OC(F)(F)F)cc3)SC2=N1, the “activity change, negative = inhibition” value was inactive: -17.4%. For O=C(O)c1cc(S(=O)(=O)Nc2ccc3c(c2)OCCO3)c(Cl)cc1Cl, the “activity change, negative = inhibition” value was inactive: 84.1%. For CCOC(=O)c1c(NC(=O)CC)sc2c1CCN(Cc1ccccc1)C2, the Potency was inconclusive [inhibitor, partial curve, poor fit]. In the case of CC(Oc1ccccc1)C(=O)N1CCN=C1SCc1ccc(F)cc1 (stereo not given), the Potency was inconclusive [inhibitor, partial curve, poor fit]. In the case of O=C(c1cccs1)c1cn(CC(=O)N2CCc3ccccc3C2)c2ccccc12, the Potency was inconclusive [inhibitor, single point]. In the case of CCOC(=O)c1cc(-c2ccc(N3CCOCC3)cc2)nn1-c1ccc(F)cc1F, the Potency was active: 11.7 µM. In the case of CCCNC(=O)N1c2ccccc2Sc2ccccc21, the Potency was inconclusive [inhibitor, single point]. For CCOc1ccc(C(=O)NC2CC(=O)N(c3ccc4c(c3)OCCO4)C2)cc1 (stereo not given), the Potency was inconclusive [inhibitor, partial curve, poor fit]. In the case of c1coc(-c2ccc3ncnc(NCc4cccs4)c3c2)c1, the Potency was inconclusive [inhibitor, single point]. In the case of COc1cc(OC)cc(C(=O)NN(CCC#N)C2=NS(=O)(=O)c3ccccc32)c1, the “activity change, negative = inhibition” value was inactive: 13.6%. In the case of Cn1c(SCC(=O)Nc2cccc3ccccc23)nc(O)cc1=O, the Potency was active: 10.4 µM. For Cc1ccc(-c2nnc(Nc3ccc4c(c3)OCO4)c3ccccc23)cc1S(=O)(=O)NCCO, the Potency was active: 3.29 µM. In the case of O=C(CSc1nnc(Nc2ccccc2F)s1)NCc1ccco1, the Potency was inconclusive [inhibitor, partial curve, poor fit]. In the case of Cc1nn(-c2ccc3ccccc3c2)c(=O)c2ccccc12, the “activity change, negative = inhibition” value was inactive: 178%. For O=[N+]([O-])c1ccccc1/C=C/c1ccc2ccccc2n1, the “activity change, negative = inhibition” value was inactive: 21.4%. With COCCNc1nc(N)c([N+](=O)[O-])c(Nc2ccc(F)cc2)n1 the Potency was inconclusive [inhibitor, full curve, poor fit]. In the case of CC(Oc1cc2oc(=O)c3c(c2cc1Cl)CCC3)C(=O)NC1CC(C)(C)NC(C)(C)C1 (stereo not given), the Potency was active: 13.1 µM. With O=C(O)c1ccc(COc2ccccc2/C=C2\NC(=O)N(Cc3ccccc3F)C2=O)cc1 the Potency was inconclusive [inhibitor, partial curve, poor fit]. For COc1cccc(-c2cc(C(=O)N/N=C/c3ccc(OC)c(COC(C)=O)c3)c3ccccc3n2)c1, the Potency was inconclusive [inhibitor, single point]. With c1ccc(CCc2ccccc2-c2nc(-c3cccnc3)no2)cc1 the Potency was active: 13.1 µM. With COC(=O)c1ccccc1NC(=O)CNc1ccc(F)c(S(=O)(=O)N2CCOCC2)c1 the Potency was inconclusive [inhibitor, single point]. In the case of CCOC(=O)CNc1nc(Cl)nc(Nc2ccc(Cl)cc2)n1, the “activity change, negative = inhibition” value was inactive: 0%. In the case of O=C(CN1CCN(Cc2ccccc2)CC1)N/N=C/C=C/c1ccco1, the “activity change, negative = inhibition” value was inactive: -6.86%. In the case of Cc1ccc(-n2c(O)c(C=NC3CCS(=O)(=O)C3)c3ccccc3c2=O)cc1 (stereo not given), the Potency was inconclusive [inhibitor, single point]. For CN(C)NC1=CC(=[N+]2CCCC2)CC(C)(C)C1, the Potency was inconclusive [inhibitor, full curve, poor fit]. For CSc1ccccc1OCc1cc(C(=O)N2CCC[C@H]2C(N)=O)no1, the “activity change, negative = inhibition” value was inactive: -12.4%. With COc1cccc(C(=O)O/N=C(\N)Cc2ccc(Cl)cc2)c1 the Potency was active: 10.4 µM. With CC(C)C(=O)Nc1cccc(C(=O)Nc2nccs2)c1 the “activity change, negative = inhibition” value was inactive: 16.9%. With CC(C)NCCCCOc1ccccc1-c1ccccc1 the Potency was inconclusive [inhibitor, single point]. With CN(C(=O)/C=C/c1ccc([N+](=O)[O-])s1)c1ccccc1 the Potency was inconclusive [inhibitor, single point]. In the case of COc1ccc(N2CCC(CNC(=S)Nc3cccc(OC)c3)C2)cc1 (stereo not given), the Potency was inconclusive [inhibitor, partial curve]. For CCOC(=O)c1c(-c2ccc(C)o2)csc1NC(=O)CSc1nnnn1-c1ccccc1, the Potency was inconclusive [inhibitor, full curve, poor fit]. For c1ccc2c(SCc3cn4cccnc4n3)ncnc2c1, the Potency was inconclusive [inhibitor, single point]. For NCCCC[C@H]1CNC(=O)C(=O)N1CCC12CC3CC(CC(C3)C1)C2, the Potency was active: 11.7 µM. For O=C1S/C(=C\c2ccccn2)C(=O)N1Cc1ccccc1F, the “activity change, negative = inhibition” value was inactive: -29.6%. With CC(C)C(C(=O)Nc1ccc2c(c1)OCCOCCOCCOCCO2)N1C(=O)c2ccccc2C1=O (stereo not given) the “activity change, negative = inhibition” value was inactive: -9.77%. For Cc1cc(C(=O)CN2C(=O)NC(C)(CC(C)C)C2=O)c(C)n1-c1ccc2c(c1)OCO2 (stereo not given), the Potency was inconclusive [inhibitor, single point]. In the case of COc1cccc(C(=O)C2CCCN(C(=O)c3cccc(C#CC(C)(C)O)c3)C2)c1 (stereo not given), the Potency was inconclusive [inhibitor, partial curve]. In the case of CC(=O)N(C)c1ccc(NC(=S)NC(=O)/C=C/c2ccco2)cc1, the Potency was inconclusive [inhibitor, partial curve]. For CCCNC(=O)c1ccc(Cn2cc(-c3ccc(OC)cc3)nc2C(C)N)cc1 (stereo not given), the Potency was inconclusive [inhibitor, single point]. In the case of COc1ccc(OC)c(NC(=O)N2CCCC(CNS(=O)(=O)c3cccs3)C2)c1 (stereo not given), the Potency was inconclusive [inhibitor, partial curve, poor fit]. In the case of O=C(CN1CCC(n2nnc3cc(F)ccc32)CC1)NC1CCCCC1, the Potency was inconclusive [inhibitor, single point]. With O=c1c2c3nc4ccccc4nc3n(/N=C/c3ccccn3)c2ncn1-c1ccccc1 the Potency was inconclusive [inhibitor, single point]. With C#CCOCCOCCOCCNc1nc(N2CCN(C(=O)CCCCCCCCCCNC(=O)Cn3cc(CCCCCN)nn3)CC2)nc(N2CCN(C(=O)CCCCCCCCCCNC(=O)[C@H](CO)n3cc(CCCSC)nn3)CC2)n1 the Potency was active: 2.94 µM. With Cc1ccc(/C=C/C(=O)NC(=S)Nc2ccccc2C(=O)NC2CCCCC2)cc1 the Potency was inconclusive [inhibitor, single point]. With CC(=O)N(c1ccc(Cl)cc1)c1c[nH]c2ccccc12 the Potency was active: 11.7 µM. With O=C(c1cccc(F)c1)N1CCN(c2cccc(Cl)c2)CC1 the Potency was inconclusive [inhibitor, single point]. In the case of NC(=O)NC(CC(=O)NCCCc1ccccc1)c1ccccc1Cl (stereo not given), the “activity change, negative = inhibition” value was inactive: -3.16%. In the case of O=C(Nc1ccc(NC(=O)c2cccs2)cc1)c1cccnc1, the “activity change, negative = inhibition” value was inactive: 6.94%. In the case of CCOc1cccc(-c2nnc3sc(-c4cccs4)nn23)c1, the Potency was inconclusive [inhibitor, full curve]. With CN1CCc2c(sc3c2c(=O)n(-c2ccccc2)c2nnc(SCc4ccccc4)n32)C1 the Potency was active: 6.57 µM. With Cc1c(C(=O)N2CCc3ccccc3C2)sc2nc(-c3ccccc3)cn12 the Potency was inconclusive [inhibitor, partial curve, poor fit]. For CCOC(=O)c1c(C)[nH]c(C)c1C(=O)COC(=O)/C=C/c1cccc(F)c1, the Potency was inconclusive [inhibitor, single point]. With [N-]=[N+]=CC(=O)c1ccnc(C(=O)C=[N+]=[N-])c1 the “activity change, negative = inhibition” value was inactive: -2.54%. With O=C(CCCCCN1C(=O)c2cccc3cccc(c23)C1=O)NCc1ccco1 the Potency was inconclusive [inhibitor, full curve, poor fit]. In the case of CN(C)c1ccc(/C=C2\C(=O)NC(=O)N(CCc3ccc(F)cc3)C2=O)cc1, the “activity change, negative = inhibition” value was inactive: -3.65%. With COc1ccc(Oc2coc3cc(OC(=O)/C=C/c4ccccc4)ccc3c2=O)cc1 the “activity change, negative = inhibition” value was inactive: 18%.
